The source of these data is article PMC4336329 (PLoS ONE, 2015).

Molecules are shown by their SMILES. About 14,000 (4.5%) of roughly 310,000 compounds showed an effect of 50% or more. Effects have a minus sign here. The list shows a part of the results.
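Further: peak tail current of the secondary pulse compared with the same well before compound.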

Chain of human ether-à-go-go-related gene (hERG) potassium channel (Q12809 whole entry, looked up): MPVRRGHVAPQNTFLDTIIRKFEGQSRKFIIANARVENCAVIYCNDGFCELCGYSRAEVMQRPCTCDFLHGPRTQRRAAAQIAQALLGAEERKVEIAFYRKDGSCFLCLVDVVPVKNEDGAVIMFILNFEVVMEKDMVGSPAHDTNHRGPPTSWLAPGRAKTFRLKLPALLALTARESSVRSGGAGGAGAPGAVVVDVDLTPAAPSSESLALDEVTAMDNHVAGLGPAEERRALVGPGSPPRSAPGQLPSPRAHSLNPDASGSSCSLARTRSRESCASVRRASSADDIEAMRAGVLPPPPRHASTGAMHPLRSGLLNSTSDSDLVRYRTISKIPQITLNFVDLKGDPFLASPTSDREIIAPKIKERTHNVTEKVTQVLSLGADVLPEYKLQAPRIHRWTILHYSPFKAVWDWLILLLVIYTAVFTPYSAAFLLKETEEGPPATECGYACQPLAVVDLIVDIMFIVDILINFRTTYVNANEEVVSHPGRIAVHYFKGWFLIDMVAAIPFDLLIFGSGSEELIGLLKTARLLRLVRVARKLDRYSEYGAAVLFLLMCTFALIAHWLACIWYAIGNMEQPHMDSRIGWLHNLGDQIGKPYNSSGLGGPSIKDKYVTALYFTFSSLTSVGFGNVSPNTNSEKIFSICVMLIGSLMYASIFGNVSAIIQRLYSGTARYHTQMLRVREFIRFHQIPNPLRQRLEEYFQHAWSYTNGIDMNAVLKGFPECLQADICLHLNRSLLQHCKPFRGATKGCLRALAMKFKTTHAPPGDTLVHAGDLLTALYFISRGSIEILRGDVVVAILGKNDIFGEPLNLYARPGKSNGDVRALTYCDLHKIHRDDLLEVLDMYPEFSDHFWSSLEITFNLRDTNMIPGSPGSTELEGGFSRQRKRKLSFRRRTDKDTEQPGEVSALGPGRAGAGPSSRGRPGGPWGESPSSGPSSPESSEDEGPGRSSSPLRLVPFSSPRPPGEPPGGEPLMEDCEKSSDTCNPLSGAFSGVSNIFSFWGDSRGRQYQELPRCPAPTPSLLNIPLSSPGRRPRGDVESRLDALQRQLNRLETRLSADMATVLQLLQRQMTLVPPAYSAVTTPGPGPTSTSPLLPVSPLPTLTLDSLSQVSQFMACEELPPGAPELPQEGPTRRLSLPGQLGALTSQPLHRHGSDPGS

The test has as its target human ether-à-go-go-related gene (hERG) potassium channel (human, UniProt Q12809). The test is described as follows: primary screen, population patch clamp on CHO cells stably expressing hERG.
Take `COc1ccc(NC(=O)CCN2CCN(S(=O)(=O)c3ccc(F)cc3)CC2)cc1`: the “hERG current change (%, negative = inhibition) at 10uM” value is on record as -6.32%. For the molecule `O=C(Cn1c(NCCO)nc2ccccc21)c1ccccc1`, the “hERG current change (%, negative = inhibition) at 10uM” value is on record as 15.7%. In the case of `Cc1cccc(C(C)C)c1NC(=O)Cc1ccc(S(=O)(=O)N2CCOCC2)s1`, the “hERG current change (%, negative = inhibition) at 10uM” value is on record as -15.6%. The figure for `CC(=O)c1ccc(N2C(=NC(=O)C(C)C)SC3CS(=O)(=O)CC32)cc1` (stereo not shown) is -0.23%; for `CCN(CC)P(=S)(c1c(C)nc2ccccn12)c1c(C)nc2ccccn12` it is -9.33%; for `Clc1cccc(Cl)c1Cn1c(-c2cccnc2Cl)nc2ccccc21` it is -25.2%. The figure for `Cc1ccc(CSCC(=O)Nc2ccccc2C(=O)O)cc1` is 27.1%; for `COc1ccccc1N1CCN(C(=S)NC(=O)/C=C/c2ccccc2)CC1` it is 2.65%; for `CCCC1Cc2c(sc(N)c2C#N)CO1` (stereo not shown) it is 2.5%. On to `CCn1c(NN=O)nc2ccccc21`, for which the “hERG current change (%, negative = inhibition) at 10uM” value amounted to 15.6%.

As to `CC(Sc1nnc(NC(=O)c2cc3ccccc3oc2=O)s1)c1ccccc1` (stereo not shown), the “hERG current change (%, negative = inhibition) at 10uM” value worked out at 13.3%. Under `COc1cc(N)c(Cl)cc1C(=O)OCC(=O)N1CCCC1` stands 18.8%; under `COCc1cc(C)nc2oc(C(=O)c3ccccc3)c(N)c12`, -2.3%. The figure for `CC(=O)N1N=C(c2ccco2)CC1c1ccco1` (stereo not shown) is 17.9%; for `CC(C)(C)OC(=O)N1CCC2(CC1)C(C#N)=C(N)OC1=C2C(=O)CCC1` it is -1.79%.

On to `COc1ccc(NC(=O)C2=C(C)NC(=S)NC2c2ccc(O)c(OC)c2)cc1` (stereo not shown), for which the “hERG current change (%, negative = inhibition) at 10uM” value is 18.9%.

For `Cc1onc(-c2ccccc2)c1-c1nc2cc(Cl)ccc2c(=O)o1`, the “hERG current change (%, negative = inhibition) at 10uM” value amounted to 10.9%. Under `Cc1cccc(OCC(=O)O/N=C(\N)c2ccncc2)c1` stands 8.79%. Under `O=C(CS(=O)(=O)c1c[nH]c2ccccc12)N1CCCc2ccccc21` stands 5.72%; under `COc1ccc(NC(=O)CNC(=O)c2cccs2)cc1Cl`, 6.73%. Turning to `CCCc1cc(=O)oc2c(CNc3ccc(OCC)cc3)c(O)ccc12.Cl`, the “hERG current change (%, negative = inhibition) at 10uM” value stood at 4.56%. On to `COCCn1c(N)c(N(Cc2ccccc2)C(=O)C2CCCCC2)c(=O)[nH]c1=O`, for which the “hERG current change (%, negative = inhibition) at 10uM” value was 9.26%. The figure for `CN(C)c1ccc(C2CC(=O)C=C(Nc3ccccc3N)C2)cc1` (stereo not shown) is 5.99%; for `CSc1nc(C)c(Oc2ccccc2)c(=O)n1C` it is 5.82%. Regarding `Cc1nn(C)c(Cl)c1/C=C/C(=O)O`, the “hERG current change (%, negative = inhibition) at 10uM” value was 14.9%. `CC(Oc1ccc(F)cc1)C(=O)N1CCN(c2ncccn2)CC1` (stereo not shown): the “hERG current change (%, negative = inhibition) at 10uM” value is listed as -6.69%.

Consider `Cc1ccc(/C=C/S(=O)(=O)NCC(=O)OCC(=O)N2CC(=O)Nc3ccccc32)cc1`, for which the “hERG current change (%, negative = inhibition) at 10uM” value is on record as -28.1%.

Turning to `Cc1ccc(C(=O)N/C(=C/c2ccco2)C(=O)NCc2ccco2)cc1`, the “hERG current change (%, negative = inhibition) at 10uM” value was -12%. The figure for `CC(C)(C)c1cc(OC(=O)c2ccncc2)ccc1O` is 9.1%. Take `CCC(C(=O)O)n1c2ccccc2c2cn[nH]c(=O)c21` (stereo not shown): the “hERG current change (%, negative = inhibition) at 10uM” value is recorded as 15.5%. Take `Br.N=C1c2ccccc2CN1NC(=O)c1ccc(Br)cc1`: the “hERG current change (%, negative = inhibition) at 10uM” value is recorded as -6.17%. Under `O=C(CSc1nc2ccccc2o1)NC(=O)NCc1ccccc1` stands 8.99%; under `COC(=O)C1=C(c2ccc(F)cc2F)C[C@@H]2CC[C@H]1N2C(=O)NCCOc1ccccc1Cl`, -8.64%. The figure for `CC12CN3CCN(C1)CC(C)(C3)C2=NO` is 8.25%. Take `Cl.Nc1cc(Cl)ccc1N1CCCCCC1`: the “hERG current change (%, negative = inhibition) at 10uM” value was 3.2%. With `C(=N\Nc1nc2ccccc2[nH]1)/c1c[nH]c2ccccc12`, the “hERG current change (%, negative = inhibition) at 10uM” value was -11.9%. The figure for `Cc1cccc(CC(=O)NCC2CCCCC2)c1` is -0.319%; for `O=C1CC2(CCN(S(=O)(=O)c3ccccc3)CC2)Oc2ccccc21` it is -84.6%; for `Cc1nc(N)sc1C(=O)N1N=N1` it is 28.9%. The figure for `CC(Sc1nncs1)C(=O)NCc1ccc2c(c1)OCO2` (stereo not shown) is 8.23%. Under `CCOc1ccc(C)cc1S(=O)(=O)N1CCCCC1` stands -1.81%; under `Cc1cc(F)ccc1S(=O)(=O)N1CCC2(CC1)OCCN2S(=O)(=O)c1cccs1`, -18.3%. Consider `CCC1CCCCN1S(=O)(=O)c1ccc([N+](=O)[O-])cc1` (stereo not shown), for which the “hERG current change (%, negative = inhibition) at 10uM” value is on record as -6.42%. The figure for `CS(=O)(=O)N1CCc2cc(S(=O)(=O)NCCNS(=O)(=O)c3ccc4c(c3)CCN4S(C)(=O)=O)ccc21` is 7.96%. The figure for `CC(C)c1csc(CN2CCC(N3CCC(C(=O)N4CCOCC4)CC3)CC2)n1` is -40.8%. The figure for `COc1ccc(CCNC(=O)c2cc(-c3ccc(Cl)c(Cl)c3)oc2C)cc1` is -2.58%.
